# Source: PubChem BioAssay AID624417 (National Center for Advancing Translational Sciences (NCATS), 2012)
# About 6,400 (1.6%) of roughly 410,000 compounds were called active. This list was built around the results that the source calls inconclusive (neither active nor inactive); the mix of calls is not that of the screen. Calls follow the shape of the dose curve; as a rule, active = well fitted inhibition curve with a large enough effect; inconclusive = small, poorly fitted or top-dose-only effect; inactive = no such curve, though single readings can be large or run the other way. A potency beside an inconclusive call is a rough fit, not a confirmed value.
# Target: Glucagon-like peptide 1 receptor (Homo sapiens) (UniProt P43220)
# Chain of UniProt P43220 (P43220 whole entry, looked up): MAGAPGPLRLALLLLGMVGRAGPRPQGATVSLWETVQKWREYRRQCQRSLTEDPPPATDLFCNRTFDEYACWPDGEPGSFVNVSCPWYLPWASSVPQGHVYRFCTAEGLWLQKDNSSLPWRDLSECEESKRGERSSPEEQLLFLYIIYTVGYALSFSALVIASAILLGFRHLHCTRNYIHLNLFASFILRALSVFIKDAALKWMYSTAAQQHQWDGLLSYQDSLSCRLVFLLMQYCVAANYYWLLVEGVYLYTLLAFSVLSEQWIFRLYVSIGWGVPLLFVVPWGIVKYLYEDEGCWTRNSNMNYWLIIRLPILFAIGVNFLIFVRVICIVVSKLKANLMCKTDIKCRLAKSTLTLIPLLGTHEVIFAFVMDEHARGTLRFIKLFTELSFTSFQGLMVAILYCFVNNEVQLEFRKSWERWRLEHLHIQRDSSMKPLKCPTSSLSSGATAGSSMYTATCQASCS
# Experiment: qHTS of GLP-1 Receptor Inverse Agonists (Inhibition Mode); also: nearly all actives have a fitted effect of over 55% in size
# Conditions: HEK293 GLP-1R CRE-luciferase, luminescence, 24 h, GLP-1R form is constitutively active; activity change, negative = inhibition: at 38.3 µM (top of the series) unless noted
# Summary of the method: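 Using stably transfected HEK293 (constitutively active GLP-1R, cAMP-luciferase reporter), compounds were incubated 24 hr and luciferase measured by luminescence.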
# % is scaled to controls: 0 for no effect and ±100 for the full control effect; potency is read from the fitted curve at half-maximal effect; tags tell the direction and shape of the fitted curve.
SMILES,Potency,"activity change, negative = inhibition"
COc1ccc(-n2c(-c3ccc(Br)cc3)c[n+]3c2CCC3)cc1,"inconclusive: 7.08 µM [inhibitor, partial curve, poor fit]",
Cc1ccc(-n2c(=O)c3c(cnn3C)n(CC(=O)Nc3ccc(C)cc3C)c2=O)cc1,inactive,
CCOc1ccc(CN2C(=O)c3ccccc3C2C(=O)NC(C)CC)cc1OC (stereo not given),inactive,
Cc1c(C(=O)N2CCC(C)CC2)c(S(=O)(=O)NCc2ccc(Cl)cc2)c(C)n1C,"inconclusive: 14.1 µM [inhibitor, single point]",
Oc1c(Br)cc(Br)cc1C=NCc1ccccc1,"inconclusive: 11.2 µM [inhibitor, partial curve, poor fit]",
CN(c1ccc(F)cc1)S(=O)(=O)N1CCCC(C(=O)NCc2cccc(Br)c2)C1 (stereo not given),"inconclusive: 8.91 µM [inhibitor, single point]",
COc1ccccc1NC(=O)Nc1nnc(CC(=O)Nc2cccc(C)c2)s1,"inconclusive: 11.2 µM [inhibitor, partial curve]",
Cc1cc(F)ccc1-c1cc(C(=O)NCc2ccc(C(F)(F)F)cc2)[nH]n1,"inconclusive: 22.4 µM [inhibitor, single point]",
O=C(NCc1ccc(Cl)c(Cl)c1)c1cc(C2CCCCN2C(=O)c2ccccc2)on1 (stereo not given),"inconclusive: 28.2 µM [inhibitor, single point]",
O=C(CCNS(=O)(=O)c1ccc(Br)s1)NCc1ccccc1Cl,"inconclusive: 31.6 µM [inhibitor, partial curve, poor fit]",
Cn1c(=O)[nH]c(=O)c2c1ncn2CCN1CCCCC1,inactive,
Cc1cc(C)n(Cc2ccc(C(=O)O)cc2)n1,inactive,
CCOc1ccc(OCCC(=O)N(CC)CC(=O)NCc2ccc(Cl)cc2)cc1,"inconclusive: 28.2 µM [inhibitor, single point]",
O=C(CN1C(=O)COc2ccc(Cl)cc21)Nc1cccc(F)c1,"inconclusive: 28.2 µM [inhibitor, single point]",
O=C(CSc1cccc2cccnc12)Nc1ccc(S(=O)(=O)N2CCOCC2)cc1,"inconclusive: 28.2 µM [inhibitor, single point]",
N#Cc1nc(COc2cccc(Cl)c2)oc1NCCc1ccccc1,"inconclusive: 22.4 µM [inhibitor, single point]",
CC(C)c1ccc(NC(=O)CSc2nc(=O)n(Cc3ccccn3)c3c2CCC3)cc1,inactive,
COc1ccc2c(c1OC)C(=O)OC2Nc1nc(-c2ccccc2)cs1 (stereo not given),"inconclusive: 7.08 µM [inhibitor, partial curve, poor fit]",
O=C(O)/C=C/C(=O)Nc1ccccc1-c1ccccc1NC(=O)/C=C/C(=O)O,inactive,
O=C(Nc1ccccc1)N(C1=NCCC1)c1ccccc1,"inconclusive: 11.2 µM [inhibitor, partial curve]",

SMILES,Potency,"activity change, negative = inhibition"
O=C(COC(=O)COc1ccc(Cl)cc1Br)NC1CC1,"inconclusive: 15.8 µM [inhibitor, single point]",
CCCN(Cc1nnc(-c2ccccc2Cl)o1)C(=O)c1cc2ccccc2o1,"inconclusive: 12.6 µM [inhibitor, single point]",
Cc1ccc(C(C(=O)NCc2ccccc2)N(Cc2ccco2)C(=O)c2snc(C(N)=O)c2N)o1 (stereo not given),"inconclusive: 2.82 µM [inhibitor, partial curve, poor fit]",
CCCn1c(SCc2nc(-c3ccccc3OCC)no2)nnc1-c1ccc(Cl)cc1,active: 10 µM,
COc1ccc(CC(=O)N[C@@H]2c3cc(OC)c(OC)cc3C[C@H]2OCc2ccccc2)cc1,"inconclusive: 11.2 µM [inhibitor, single point]",
COc1cc(OC)cc(C2=Cc3ccc(OC)cc3C(CC(C)=O)N2c2ccc(C#CC3(O)CCCCC3)cc2)c1 (stereo not given),"inconclusive: 2.24 µM [inhibitor, partial curve, poor fit]",
Cc1ccc(OCCn2cc(C#N)c3ccccc32)cc1,"inconclusive: 8.91 µM [inhibitor, partial curve, poor fit]",
Nc1nc2sc3c(c2cc1C(=O)NCC(=O)O)CCCC3,"inconclusive: 12.6 µM [inhibitor, partial curve, poor fit]",
C/C(CC(=O)Nc1cccc(C(F)(F)F)c1)=N\NC(=O)c1cnccn1,"inconclusive: 14.1 µM [inhibitor, single point]",
Cc1ccc(N2C(=O)N(CC(=O)Nc3cccc(Cl)c3)C(=O)C2C)cc1 (stereo not given),"inconclusive: 10 µM [inhibitor, partial curve, poor fit]",
CN(C(=O)COC(=O)c1cccc(S(=O)(=O)N2CCCCC2)c1)C1CCS(=O)(=O)C1 (stereo not given),"inconclusive: 25.1 µM [inhibitor, single point]",
Cc1nc(N2CCCCC2)c2c(C)c(C(=O)Nc3cccc(C(F)(F)F)c3)sc2n1,"inconclusive: 11.2 µM [inhibitor, partial curve, poor fit]",
CCN(CC)S(=O)(=O)c1cccc(NC(=O)CSc2nc3ccccc3[nH]2)c1,"inconclusive: 28.2 µM [inhibitor, single point]",
O=C(CCS(=O)(=O)c1nc(-c2cccs2)cc(C(F)(F)F)n1)Nc1cc(Br)ccc1O,"inconclusive: 28.2 µM [inhibitor, single point]",
CCc1ccc(OCCNc2cc(N3CCNC(C)C3)ccc2[N+](=O)[O-])cc1 (stereo not given),"inconclusive: 28.2 µM [inhibitor, single point]",
COc1ccc(C(=O)c2c(C)c3ccccc3n2CC(O)CNC(C)C)cc1 (stereo not given),active: 2.24 µM,
CCCCCCCCN1C(=O)[C@H](CC(=O)NCc2ccccc2)C[C@@]2(C(=O)OC)CC(C)(C)CC=C12,"inconclusive: 10 µM [inhibitor, partial curve]",
COc1ccccc1C/C(N)=N/OC(=O)COc1ccc(C)cc1,"inconclusive: 12.6 µM [inhibitor, single point]",
Clc1cccc(Nc2nc(-c3ccncc3)cs2)c1,,inconclusive: -52.6% [inhibitor] [at 7.66 µM]
Cc1cc(C)nc(NC(=S)Nc2ccc(Br)cc2Cl)c1,inactive,
